Data: PMC9008731
These are yes or no findings as the source states them, for the method shown. Binding seen in cells or lysates may run through a third protein. Some binding calls cover weakened binding; strength is not graded here. Sequences can lack the tags named with a protein.

By UniProt entry, the sequences of proteins in these tests, tags left out.
UniProt O00429: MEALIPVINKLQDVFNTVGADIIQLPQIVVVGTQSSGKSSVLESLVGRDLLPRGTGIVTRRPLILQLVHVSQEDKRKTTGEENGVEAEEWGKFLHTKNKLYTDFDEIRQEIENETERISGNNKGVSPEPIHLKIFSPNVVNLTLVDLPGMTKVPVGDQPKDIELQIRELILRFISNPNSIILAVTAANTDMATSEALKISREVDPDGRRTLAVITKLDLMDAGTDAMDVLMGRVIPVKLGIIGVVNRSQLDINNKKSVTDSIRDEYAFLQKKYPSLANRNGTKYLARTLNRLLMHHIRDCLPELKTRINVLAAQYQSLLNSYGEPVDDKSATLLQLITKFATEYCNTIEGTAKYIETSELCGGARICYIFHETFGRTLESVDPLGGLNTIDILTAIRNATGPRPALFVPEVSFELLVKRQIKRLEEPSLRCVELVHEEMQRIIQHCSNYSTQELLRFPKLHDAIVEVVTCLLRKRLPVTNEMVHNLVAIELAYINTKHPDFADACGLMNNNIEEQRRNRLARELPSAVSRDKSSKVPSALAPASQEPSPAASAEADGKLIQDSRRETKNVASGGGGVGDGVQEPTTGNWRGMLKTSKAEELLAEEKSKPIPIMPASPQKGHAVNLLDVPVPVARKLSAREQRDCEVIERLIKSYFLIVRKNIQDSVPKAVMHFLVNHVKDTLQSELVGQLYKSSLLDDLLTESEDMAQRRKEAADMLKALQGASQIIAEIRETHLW

T1: Flag-PGAM5 N-terminus (1-98) (UniProt Q96HS1)
T1 sequence: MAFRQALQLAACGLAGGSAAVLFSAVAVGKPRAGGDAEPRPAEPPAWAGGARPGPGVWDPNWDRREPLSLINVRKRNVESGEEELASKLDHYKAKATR

T2: Flag-PGAM5 C-terminus (99-289) (UniProt Q96HS1)
T2 sequence: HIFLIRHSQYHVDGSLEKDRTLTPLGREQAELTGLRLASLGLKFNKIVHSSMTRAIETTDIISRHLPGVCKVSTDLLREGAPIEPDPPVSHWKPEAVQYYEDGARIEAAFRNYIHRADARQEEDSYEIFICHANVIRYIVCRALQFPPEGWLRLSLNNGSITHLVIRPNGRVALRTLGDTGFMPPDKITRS

T3: Flag-PGAM5, full-length (WT) (UniProt Q96HS1)
T3 sequence: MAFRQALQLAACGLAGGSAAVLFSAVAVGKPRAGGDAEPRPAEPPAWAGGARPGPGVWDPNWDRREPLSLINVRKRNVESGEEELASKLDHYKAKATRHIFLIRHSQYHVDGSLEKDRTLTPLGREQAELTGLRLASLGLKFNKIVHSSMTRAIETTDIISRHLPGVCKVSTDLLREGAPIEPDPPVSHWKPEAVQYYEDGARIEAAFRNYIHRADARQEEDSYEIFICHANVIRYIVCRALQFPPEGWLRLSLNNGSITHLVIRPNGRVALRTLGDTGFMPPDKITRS

T4: Flag-TOM70 (translocase of outer membrane 70) (UniProt O94826)
T4 sequence: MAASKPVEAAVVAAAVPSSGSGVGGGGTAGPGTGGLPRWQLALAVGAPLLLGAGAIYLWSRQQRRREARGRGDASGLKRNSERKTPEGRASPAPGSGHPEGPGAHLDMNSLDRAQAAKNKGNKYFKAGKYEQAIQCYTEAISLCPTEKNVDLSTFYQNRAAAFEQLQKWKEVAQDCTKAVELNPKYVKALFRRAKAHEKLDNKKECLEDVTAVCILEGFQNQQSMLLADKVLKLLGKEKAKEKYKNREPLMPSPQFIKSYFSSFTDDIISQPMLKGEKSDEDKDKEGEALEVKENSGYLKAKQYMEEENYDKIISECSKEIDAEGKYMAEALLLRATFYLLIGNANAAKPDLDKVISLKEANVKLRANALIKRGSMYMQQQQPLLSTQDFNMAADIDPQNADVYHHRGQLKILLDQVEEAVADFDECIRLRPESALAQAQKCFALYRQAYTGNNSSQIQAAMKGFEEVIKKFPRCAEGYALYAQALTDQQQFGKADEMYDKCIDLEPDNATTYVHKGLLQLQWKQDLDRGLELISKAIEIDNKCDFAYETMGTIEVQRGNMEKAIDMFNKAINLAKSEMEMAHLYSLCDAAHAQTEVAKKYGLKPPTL

T5: Flag-TOM20 (translocase of outer mitochondrial membrane 20), Q15388
T5 chain: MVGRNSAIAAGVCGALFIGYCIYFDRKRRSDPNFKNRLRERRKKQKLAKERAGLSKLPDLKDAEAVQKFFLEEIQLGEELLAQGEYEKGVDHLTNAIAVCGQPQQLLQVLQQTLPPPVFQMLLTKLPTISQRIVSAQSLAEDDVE

B1: HA-SND1 (Staphylococcal nuclease domain-containing protein 1), Q7KZF4 1-910 (protein)
chain: MASSAQSGGSSGGPAVPTVQRGIIKMVLSGCAIIVRGQPRGGPPPERQINLSNIRAGNLARRAAATQPDAKDTPDEPWAFPAREFLRKKLIGKEVCFTIENKTPQGREYGMIYLGKDTNGENIAESLVAEGLATRREGMRANNPEQNRLSECEEQAKAAKKGMWSEGNGSHTIRDLKYTIENPRHFVDSHHQKPVNAIIEHVRDGSVVRALLLPDYYLVTVMLSGIKCPTFRREADGSETPEPFAAEAKFFTESRLLQRDVQIILESCHNQNILGTILHPNGNITELLLKEGFARCVDWSIAVYTRGAEKLRAAERFAKERRLRIWRDYVAPTANLDQKDKQFVAKVMQVLNADAIVVKLNSGDYKTIHLSSIRPPRLEGENTQDKNKKLRPLYDIPYMFEAREFLRKKLIGKKVNVTVDYIRPASPATETVPAFSERTCATVTIGGINIAEALVSKGLATVIRYRQDDDQRSSHYDELLAAEARAIKNGKGLHSKKEVPIHRVADISGDTQKAKQFLPFLQRAGRSEAVVEYVFSGSRLKLYLPKETCLITFLLAGIECPRGARNLPGLVQEGEPFSEEATLFTKELVLQREVEVEVESMDKAGNFIGWLHIDGANLSVLLVEHALSKVHFTAERSSYYKSLLSAEEAAKQKKEKVWAHYEEQPVEEVMPVLEEKERSASYKPVFVTEITDDLHFYVQDVETGTQLEKLMENMRNDIASHPPVEGSYAPRRGEFCIAKFVDGEWYRARVEKVESPAKIHVFYIDYGNREVLPSTRLGTLSPAFSTRVLPAQATEYAFAFIQVPQDDDARTDAVDSVVRDIQNTQCLLNVEHLSAGCPHVTLQFADSKGDVGLGLVKEGLVMVEVRKEKQFQKVITEYLNAQESAKSARLNLWRYGDFRADDADEFGYSR

What was measured:
[1] = target: T1, Flag-PGAM5 N-terminus (1-98); test: co-IP; HEK293T cells transfected with HA- and Flag-tagged plasmids; lysates in IP buffer (0.5% NP-40, 20 mM Tris-HCl pH 7.5, 150 mM NaCl, 2 mM EDTA, 1.5 mM MgCl2) immunoprecipitated with anti-Flag antibody (or IgG), protein A/G beads, immunoblot
[2] = target: T2, Flag-PGAM5 C-terminus (99-289); test: as above
[3] = target: T3, Flag-PGAM5, full-length (WT); test: as above
[4] = target: T4, Flag-TOM70 (translocase of outer membrane 70); test: as above
[5] = target: T3, Flag-PGAM5, full-length (WT); test: co-IP; Hep3B or PLC cells stably expressing or infected with the tagged proteins; whole cell lysates immunoprecipitated with anti-Flag antibody (or IgG), immunoblot; some cells treated with FCCP for 6 h or glucose-free medium for 24 h, or with SND1 knocked down
[6] = target: T3, Flag-PGAM5, full-length (WT); test: co-IP; Hep3B or PLC cells stably expressing HA-SND1 and infected with Flag-PGAM5; anti-Flag IP in enriched mitochondrial fractions, immunoblot with antibodies against PGAM5 and SND1
[7] = target: T5, Flag-TOM20 (translocase of outer …); test: co-IP; HEK293T cells transfected with HA- and Flag-tagged plasmids; lysates in IP buffer (0.5% NP-40, 20 mM Tris-HCl pH 7.5, 150 mM NaCl, 2 mM EDTA, 1.5 mM MgCl2) immunoprecipitated with anti-Flag antibody (or IgG), protein A/G beads, immunoblot; settings: remark: other sources report otherwise

Molecule | binding [1] | binding [2] | binding [3] | binding [4] | binding [5] | binding [6] | binding [7]
HA-SND1 (Staphylococcal nuclease domain-containing protein 1) (from UniProt Q7KZF4 1-910) | no binding | binds | binds | binds | binds | binds | –
HA-DRP1 (dynamin-related protein 1) (from UniProt O00429 1-736) | – | – | – | – | binds | – | –
SND1, endogenous (from UniProt Q7KZF4 1-910) | – | – | binds | – | binds | – | –
B1 | – | – | – | – | – | – | no binding
